± gives the standard deviation of the averaged measurements. The list shows a part of the results.

This assay concerns PfAP2-G AP2 domain (GST-tagged). In words: gcPBM binding intensity (ln(normalized median fluorescence intensity)); higher = stronger DNA binding. The method, boiled down:
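After 1 h on an Agilent 4 × 180k array of primer-extended double-stranded 36-bp intergenic genomic probes and negative controls, bound GST-tagged P. falciparum DNA-binding domains were detected with Alexa488 anti-GST antibody and scanned at 488 nm. The domains had been expressed in E. coli, and binding took place in 1× PBS with 1% milk, 0.2 mg/ml BSA, 0.5% salmon testes DNA and 0.03% Triton X-100. Binding intensity is the highest Masliner-normalised natural-log median intensity across replicate spots of either probe orientation.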
In the case of “TATATATATGTATGTGGTACTTATATTATATACATA [XGTACX_site4550]”, the “gcPBM binding intensity (ln)” value came to 10.9 ± 0.67. To “TTATACACAAAAAAAAAAATATATATATATATATAT [XGTACX_negctrl_site5]” belongs 9.7 ± 0.42; to “ATTTATGAGTAATACACACACTTGTGGATATATTAC [CACACA_site7735]”, 10.2 ± 0.16; to “TTTATATAATATAAATTTTTTTTGCAGTAATAAAAA [TGCATGCA_negctrl_site570]”, 9.78 ± 0.15.

Consider “ACTTCAAAAAAAAAAAAATATATATATATATATTAT [GTGCAC_negctrl_site158]”, for which the “gcPBM binding intensity (ln)” value was 9.54 ± 0.11.

“TGTTGTATTGAAGCTAAAAAATGAGGCAAAAAAAAA [CACACA_negctrl_site1189]”: the “gcPBM binding intensity (ln)” value came to 10.2 ± 0.26. To “AAGAAAAACTTATATATATATATATATATATATATA [TGCATGCA_negctrl_site466]” belongs 10.2 ± 1; to “TCATACATGTATATGTGTACATATAATGTATATTCC [XGTACX_site6082]”, 11.3 ± 0.95. Consider “TTTTTTTTTTTTTTTTTTTTTTTATGTTCTTAAAAA [GTGCAC_negctrl_site62]”, for which the “gcPBM binding intensity (ln)” value came to 9.56 ± 0.35. Then “TTTTTTTTTTTTACGTGTACATAAATGTTAAGTAAT [XGTACX_site3901]”, with 11.4 ± 0.91. To “AAAATATAGGTATGCACACACATATACTTCTGTGCA [CACACA_site1409]” belongs 10.15 ± 0.064; to “AAAAAAAAAAAAAAAAGTACAAAAAGAAGAAAAAAA [XGTACX_site6521]”, 11.3 ± 0.85. To “TATAAATATTTATGTACACACATATACATGTTGAAT [CACACA_site5684]” belongs 11.3 ± 0.82; to “CAATGTTAACATATTACACACATATGTATTTATAAC [CACACA_site7314]”, 10.1 ± 0.099; to “TAAATATATAATAAATGTACATATTAATATTATGGT [XGTACX_site1498]”, 11.1 ± 0.45.

As for “TATAAATATACAAACACACATACAAACATATATATA [CACACA_site1120]”, the “gcPBM binding intensity (ln)” value is 10.1. As to “TTAATACCCAGACACACACACACAAAATAAAATACA [CACACA_site7968]”, the “gcPBM binding intensity (ln)” value was 10.2 ± 0.4.

As for “AAAAAAAATTTAATTGCACACAGGAAAATATAATTT [CACACA_site3810]”, the “gcPBM binding intensity (ln)” value worked out at 10.015 ± 0.007. Regarding “TAAATACAGAGGAAAATACACACGTATATATATAAA [CACACA_site3410]”, the “gcPBM binding intensity (ln)” value was 10.3 ± 0.13. In the case of “ATTTGATATATAATAATACACACTTACATAATTAAT [CACACA_site290]”, the “gcPBM binding intensity (ln)” value worked out at 9.985 ± 0.035. Then “TCTTTTTCAAGATGACGTACTTAGATTAATATAAAA [XGTACX_site3931]”, with 11.1 ± 0.8; and “TTTTTTTAATGATATTGTACATTAATAAAAAATATG [XGTACX_site1719]”, with 10.8 ± 0.61. For the sequence “ATCGTGTTAAATGTTGTGCACATATAAATTACAAAA [GTGCAC_site9822]”, the “gcPBM binding intensity (ln)” value was 10.8 ± 0.52. On to “AATTTTGGAACGTGCACACATATGTAATATATATAT [CACACA_site3067]”, for which the “gcPBM binding intensity (ln)” value turned out to be 10.5 ± 0.36. For “ATATGATCATTTTATCATTTTGCTTTTTCTTTTTTT [CACACA_negctrl_site1325]”, the “gcPBM binding intensity (ln)” value is 9.4 ± 0.42.

Consider “TTTTGATCTGAAGGAACCTAAAAAGGGAAGAGAAAA [CACACA_negctrl_site1656]”, for which the “gcPBM binding intensity (ln)” value was found to be 10.1 ± 0.35.

In the case of “CAAAAGTAAGCACGCACACACAACATGAAATAAAAT [CACACA_site165]”, the “gcPBM binding intensity (ln)” value amounted to 10.3 ± 0.28. As for “TATACACTTATTGGTGGTACAATATATAAATATATG [XGTACX_site3289]”, the “gcPBM binding intensity (ln)” value came out at 11.4 ± 0.89.

As to TTTTTAATATATTAGGTGCACAATAATACACTTTAT, the “gcPBM binding intensity (ln)” value was found to be 10.6 ± 0.51. With “TATATATATATTTATACACACACATATATTTATATA [CACACA_site8054]”, the “gcPBM binding intensity (ln)” value worked out at 9.93 ± 0.16. Take “ATTAGTATAATGTAACTTAGTTAATAGTGCTAATAT [CACACA_negctrl_site764]”: the “gcPBM binding intensity (ln)” value is 10.2 ± 0.29. To “ACAAAATAAAACATCTGTACATATTATTATTATAAG [XGTACX_site4802]” belongs 11.1 ± 0.64; to “TATATTTATAACAACACACACAGATCATAAAACTGC [CACACA_site7086]”, 10.2 ± 0.12; to “AAAAAAAAAAAAAAAACACACACATGCACATCATAT [CACACA_site8083]”, 10.4 ± 0.21. Regarding “AAAAAAAACACGCGCACACACACACCCACCCACCGA [CACACA_site2206]”, the “gcPBM binding intensity (ln)” value is 10.7 ± 0.34. On to “TTTTTGGTATTATTGTGTACTTATAAATAATATAAT [XGTACX_site4019]”, for which the “gcPBM binding intensity (ln)” value was 11.5 ± 0.91. To “GAAAAAAAAGCTTGCACACGTATTTGCTTTATGTAT [CACACA_site4931]” belongs 10.5 ± 0.13; to “TACATATATATATTATGTACATAAGGTTTGAGTTCA [XGTACX_site2726]”, 11.1 ± 0.61. For “TTTTATACATATTTTACACACTAAAATATACCTATA [CACACA_site6286]”, the “gcPBM binding intensity (ln)” value was determined as 10.11 ± 0.071. Then “TAAAAAATATACATTCGTACATATATATTATATATA [XGTACX_site7918]”, with 10.8 ± 0.67; and “ATATATATAAATAATTGTACATAATAATAAAATATA [XGTACX_site4839]”, with 11 ± 0.64; and “ATATTTTGTAACTATACACACATATTTATATTATAA [CACACA_site7433]”, with 10.04 ± 0.078. For “CAAGTAGATATTATACGTACATATATATATATATAT [XGTACX_site8349]”, the “gcPBM binding intensity (ln)” value stood at 11.4 ± 0.84.

Regarding “TTTACATTTCAGTAGACACACAAAAAATAATACTAA [CACACA_site512]”, the “gcPBM binding intensity (ln)” value amounted to 10.2 ± 0.28.
